# According to the BET-seq Pho4 binding data (Le et al. 2018):
# The list shows a part of the results. The energies were worked out here from pooled read counts, against the library average; single values are noisy.
# Biological target: T1, Pho4 (S. cerevisiae) (UniProt P07270)
# T1 sequence: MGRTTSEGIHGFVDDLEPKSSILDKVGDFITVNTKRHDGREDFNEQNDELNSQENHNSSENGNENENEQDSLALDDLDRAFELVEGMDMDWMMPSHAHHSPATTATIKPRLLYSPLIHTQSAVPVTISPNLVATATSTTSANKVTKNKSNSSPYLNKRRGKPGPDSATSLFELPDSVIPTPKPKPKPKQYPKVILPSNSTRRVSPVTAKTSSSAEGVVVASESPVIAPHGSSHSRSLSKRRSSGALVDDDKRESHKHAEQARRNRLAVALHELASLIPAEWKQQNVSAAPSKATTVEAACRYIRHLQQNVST
# Assay: relative binding free energy (BET-seq); higher = weaker binding
# Details: reference: library average
row,Sequence,relative binding free energy [kcal/mol]
1,AAAAGCACGTGTGATG,0.11
2,GGTTGCACGTGGGACT,0
3,GCGTTCACGTGATGGT,0.39
4,ATGTTCACGTGGGGAG,0.11
5,AAGTTCACGTGTATCG,0.14
6,GGTGGCACGTGATCCG,0.08
7,TTGTGCACGTGCATGT,-0.12
8,TTATACACGTGATGAT,0.01
9,CAGGGCACGTGATTGA,0.04
10,GTGCGCACGTGAAGTG,0.21
11,TTGTTCACGTGTGTTG,0.32
12,GATTTCACGTGGTCGG,0.32
13,AGCGACACGTGGGGTC,-0.09
14,TTTAGCACGTGCTGCT,-0.02
15,CCTGGCACGTGTGTTA,0.05
16,CTATTCACGTGGTGCT,0.09
17,ATCTTCACGTGCTTGG,0.32
18,TTGTCCACGTGTGTGC,0.14
19,GTTAGCACGTGCAGTC,0.24
20,AGTCCCACGTGGTTTG,-0.05
21,TTTGCCACGTGTTAAT,-0.14
22,TAAGTCACGTGATTGT,0.09
23,CAGTGCACGTGAGCGT,0.09

row,Sequence,relative binding free energy [kcal/mol]
1,TATGTCACGTGCCGGT,0.06
2,CAGTGCACGTGGGATA,-0.01
3,TAGTGCACGTGATTTA,-0.03
4,CGGGGCACGTGTTGTT,-0.05
5,TGAACCACGTGTAGTG,0.02
6,GAATTCACGTGAAGTT,0.54
7,TCTTTCACGTGGTCGG,0.15
8,GAATTCACGTGTTGTC,0.31
9,ATGCGCACGTGAAGTG,0.13
10,TTATACACGTGCTGGG,0.1
11,GGGCTCACGTGAGGGC,0.33
12,GTTAGCACGTGATAGG,0.11
13,TGGAGCACGTGAGTGA,0.16
14,TTCAGCACGTGGGTGC,-0.15
15,GAGTGCACGTGTTGGT,0.05
16,GGAGACACGTGTGCGG,-0.02
17,GAGAGCACGTGGCTGG,-0.11
18,AGGAGCACGTGAAAGT,0.21
19,ATTCGCACGTGGTTTT,-0.08
20,GCAAGCACGTGGTAGG,-0.16
21,TCCTTCACGTGGTTGA,0.4
22,TTGAGCACGTGCTTGG,-0.05
23,AGCGGCACGTGGTATT,-0.24

row,Sequence,relative binding free energy [kcal/mol]
1,GTCGACACGTGGGCGG,-0.04
2,TATGACACGTGATATG,0.22
3,ACATGCACGTGGGGTC,-0.14
4,GTCAGCACGTGGTATG,-0.15
5,AATGACACGTGGGCTG,-0.12
6,GGAGTCACGTGGCAGT,0.06
7,ATGGTCACGTGGGTTG,-0.03
8,TCGCGCACGTGTTTTG,0.05
9,TTTTTCACGTGTCGGC,0.33
10,TGGATCACGTGATTAG,0.31
11,AGCGTCACGTGTTTTA,0.05
12,AGATTCACGTGCCGGG,0.3
13,ATGGACACGTGTTTTT,0.06
14,GGGATCACGTGGTTAG,0.01
15,TTTAGCACGTGAAATG,0.26
16,TTGAGCACGTGGGGCT,-0.17
17,AATCGCACGTGAATGG,0.3
18,ATTATCACGTGGAGTG,0.08
19,GTTGTCACGTGGGCTG,-0.07
20,TTCTTCACGTGGAGTG,0.21
21,GCATGCACGTGTGGGG,-0.02
22,TAGTACACGTGTATCG,0.16
23,AAGAGCACGTGTGGAT,-0.12

row,Sequence,relative binding free energy [kcal/mol]
1,AGGTTCACGTGAAAAG,0.55
2,GGAATCACGTGTGTAT,0.16
3,TTGTTCACGTGCCAGG,0.11
4,CGGTCCACGTGTTGAG,0.09
5,CTATTCACGTGTTCGG,0.28
6,GTAAACACGTGTTGCT,0.05
7,CAGGGCACGTGATCGG,-0.09
8,ATGAGCACGTGTGATG,-0.22
9,GGCGGCACGTGTACGG,0.07
10,GTTCACACGTGGGTAA,-0.07
11,TGGTGCACGTGGAGTT,0.14
12,AGTTGCACGTGGAGGA,0.02
13,TGTGGCACGTGCTGCT,-0.23
14,TTTTCCACGTGTAAGG,0.1
15,TGAGTCACGTGTGAGC,0.2
16,TTATTCACGTGATCGT,0.24
17,TTCTCCACGTGTTTTT,0
18,AGGGACACGTGGGCCT,-0.12
19,TGTAACACGTGTCTGG,-0.03
20,GATGTCACGTGAGTTC,0.29
21,TTTCGCACGTGTAAGG,0.14
22,TGGGTCACGTGAAGAC,0.37
23,CGTTGCACGTGCTGTT,-0.11

row,Sequence,relative binding free energy [kcal/mol]
1,TGCTGCACGTGGGCGT,-0.12
2,GTTAACACGTGGACGG,0.27
3,TTGTCCACGTGTTGTA,-0.08
4,CGTAACACGTGTGAGT,0.11
5,TTGAGCACGTGTCGGT,-0.12
6,TTTCTCACGTGTGGTC,0.17
7,TAAATCACGTGGGGCG,0.08
8,TTACACACGTGTTAGG,0.11
9,GATGTCACGTGAAGGT,0.3
10,TTGTTCACGTGTGCAA,0.32
11,AAGTTCACGTGTAGAT,0.42
12,TGTAACACGTGACAGG,0.26
13,GATTTCACGTGAAGTG,0.43
14,CTGCTCACGTGGGGGC,0.02
15,GTCAGCACGTGTGATT,0.11
16,TGATGCACGTGTGAGT,-0.05
17,TTGATCACGTGAGTGA,0.31
18,GGCAGCACGTGGTATT,-0.06
19,TCCGTCACGTGCGGGG,0.1
20,TTACACACGTGTGAGG,0.08
21,TGTTGCACGTGCATTT,0.02
22,TAATGCACGTGAGATT,0.17
23,ATCTACACGTGGGTGT,-0.1
